Out of some 310,000 compounds screened, about 14,000 (4.5%) showed an effect of 50% or more. The effect is printed as a negative number. This is one part of the list.
Each molecule was assayed against human ether-à-go-go-related gene (hERG) potassium channel (human, UniProt Q12809) (assay: primary screen, population patch clamp on CHO cells stably expressing hERG).
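Further: peak tail current of the secondary pulse compared with the same well before compound.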

human ether-à-go-go-related gene (hERG) potassium channel, sequence (Q12809 whole entry, looked up): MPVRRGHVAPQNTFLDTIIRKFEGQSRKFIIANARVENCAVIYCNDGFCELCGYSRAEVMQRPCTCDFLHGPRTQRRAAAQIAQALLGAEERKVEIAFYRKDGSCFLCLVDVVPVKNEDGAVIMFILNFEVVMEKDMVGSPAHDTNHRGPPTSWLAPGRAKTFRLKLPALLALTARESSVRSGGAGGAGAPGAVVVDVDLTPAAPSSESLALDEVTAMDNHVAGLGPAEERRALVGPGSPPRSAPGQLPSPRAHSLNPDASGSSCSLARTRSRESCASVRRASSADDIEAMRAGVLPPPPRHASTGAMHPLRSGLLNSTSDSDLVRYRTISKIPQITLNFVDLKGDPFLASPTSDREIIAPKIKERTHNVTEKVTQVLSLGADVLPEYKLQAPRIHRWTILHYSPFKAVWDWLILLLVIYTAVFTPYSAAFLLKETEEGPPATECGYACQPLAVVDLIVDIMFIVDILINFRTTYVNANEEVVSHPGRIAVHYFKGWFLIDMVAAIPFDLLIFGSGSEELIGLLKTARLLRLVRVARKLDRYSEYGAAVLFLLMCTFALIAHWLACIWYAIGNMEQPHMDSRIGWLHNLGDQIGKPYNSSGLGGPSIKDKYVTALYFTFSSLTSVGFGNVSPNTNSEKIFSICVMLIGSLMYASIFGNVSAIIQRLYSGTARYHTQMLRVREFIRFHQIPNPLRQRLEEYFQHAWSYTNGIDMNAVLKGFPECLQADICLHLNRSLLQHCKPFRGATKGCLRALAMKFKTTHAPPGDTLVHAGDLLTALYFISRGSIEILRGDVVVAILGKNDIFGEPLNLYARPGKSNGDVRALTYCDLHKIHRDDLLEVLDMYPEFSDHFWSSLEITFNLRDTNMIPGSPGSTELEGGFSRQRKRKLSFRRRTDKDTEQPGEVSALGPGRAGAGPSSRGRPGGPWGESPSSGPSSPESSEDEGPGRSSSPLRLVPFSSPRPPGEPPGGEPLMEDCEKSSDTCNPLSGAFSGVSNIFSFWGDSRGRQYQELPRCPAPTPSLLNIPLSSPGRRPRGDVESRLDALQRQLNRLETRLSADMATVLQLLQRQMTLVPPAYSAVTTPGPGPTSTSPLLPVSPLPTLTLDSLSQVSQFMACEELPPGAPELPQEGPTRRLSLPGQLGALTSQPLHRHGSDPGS

SMILES | hERG current change (%, negative = inhibition) at 10uM
O=C1C2C3C=CC(C3)C2C(=O)N1CCCO (stereo not shown) | -3.34%
O=C(COC(=O)c1cccs1)Nc1cccc(S(=O)(=O)N2CCOCC2)c1 | -26.5%
COc1cc(C(=O)NCC(=O)OCC(=O)Nc2ncc(Cl)cc2Cl)cc(OC)c1OC | 4.85%
COc1ccc(CNC(=O)CN2C(=O)COc3ccc(S(=O)(=O)N4CCCCC4)cc32)cc1 | -16.2%
CNC(=O)C1=C(C)NC(=S)NC1c1cc2c(cc1OC)CCCC2 (stereo not shown) | -3.1%
O=C1CCC(=O)N1CC(=O)N1CCCc2ccccc21 | 13.8%
Cc1nccn1-c1ccc(C=O)cc1 | 13.4%
COC(=O)c1cccc(C(=O)N2CCCC(C(=O)c3cc(F)ccc3F)C2)c1 (stereo not shown) | -21%
CC(=O)OC1CCC(OC(C)=O)c2c1n([O-])c(C)c(C)[n+]2=O (stereo not shown) | 3.92%
Cc1cc(C)c(N=Cc2c(O)c3ccccc3oc2=O)c(C)c1 | 21.3%
CS(=O)(=O)N(CC(=O)N1CCN(Cc2ccccc2)CC1)Cc1ccccc1 | -8.61%
Cn1c(=O)c2c(nc(Br)n2Cc2ccccc2Cl)n(C)c1=O | 10.4%
CCOC(=O)NC1(C(F)(F)F)C(=O)NC(C)=C1C#N (stereo not shown) | -4.27%
CCCCSc1nc2[nH]ncc2c(=O)[nH]1 | 8.6%
CC(C)(c1ccccc1)c1ccc(OCCn2cnc3ccccc3c2=O)cc1.O=C(O)C(=O)O | 11.1%
Cc1ccc(N(Cc2cc3cccc(C)c3[nH]c2=O)S(=O)(=O)c2ccccc2)c(C)c1 | -2.6%
Cc1c(C(=O)O)cccc1[N+](=O)[O-] | 21.8%
CC1Cc2nc(SCC(=O)NCc3ccccc3)n(Cc3ccccc3)c(=O)c2S1 (stereo not shown) | -47.2%
CCCc1nc2c(s1)CCc1onc(-c3cccc([N+](=O)[O-])c3)c1-2 | 16.1%
O=C(C1CCN(S(=O)(=O)c2cnc[nH]2)CC1)N(CCc1ccccc1)Cc1ccccc1 | -1.77%
CCSc1nc2ccccc2n1Cc1cccc([N+](=O)[O-])c1 | -69.7%
O=C(c1ccc(CN2CCOCC2)cc1)N1CCN(c2cccc(Cl)c2)CC1 | -22.2%
COc1ccc(-c2noc(-c3cccs3)n2)cc1OC | 18.6%
Cc1cccc(NC(=S)NC(=O)C(c2ccccc2)c2ccccc2)n1 | 9.16%
CNCc1ccccc1Sc1ccc(OC)c(OC)c1.O=C(O)/C=C\C(=O)O | -18.3%

Reference: article PMC4336329 (PLoS ONE, 2015)
